Source: PubChem BioAssay AID485313 (National Center for Advancing Translational Sciences (NCATS), 2010)
Among all 320,000 compounds or so, about 7,600 (2.4%) were called active. The shares of active, inactive and inconclusive entries below differ from those in the screen. Calls come from the whole dose curve; as a rule, active = well fitted activation curve with a large enough effect; inconclusive = small, poorly fitted or top-dose-only effect; inactive = no such curve, though single readings can be large or run the other way. Where the call is inconclusive, the potency comes from a doubtful curve fit.

assay: qHTS Assay for NPC1 Promoter Activators; conditions: Huh7 NPC1 promoter luciferase reporter, 24 h; series mostly up to 9.22 µM; note: nearly all actives have a fitted effect of over 60% in size;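 for activation: reporter is driven by a mutant NPC1 promoter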
How it was run: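 Cells: Huh7 expressing luciferase under the NPC1 promoter, 1500/well. Seeded 2 h, compound added, incubated 24 h at 37 °C. Luciferase reagent, 10 min ambient, then luminescence.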
Potency is the fitted concentration of half-maximal effect; tags give direction and shape of the fitted curve.

Potency, inconclusive:
C/C(=N/NC(=O)c1cccs1)c1cccs1 5.62 µM [activator, single point]
c1ccc([C@H]2CN3C(=N2)Sc2ccccc23)cc1 3.98 µM [activator, single point]
CC1(C)CC(=O)c2cc(OCC(=O)N3CCCCCC3)ccc2O1 4.47 µM [activator, partial curve]
CC1=NN(C(N)=S)C(=O)C1N=Nc1ccc([N+](=O)[O-])cc1 (configuration not stated) 3.16 µM [activator, single point]
CCCCNC(=O)Nc1ccc(Br)cn1 3.16 µM [activator, partial curve, poor fit]
Cc1ccc(SCC(=O)Nc2ccc(N3CCN(C)CC3)c(F)c2)cc1 2.82 µM [activator, partial curve]
O=C(N/N=C/c1ccccc1C(F)(F)F)c1ccc2nc[nH]c2c1 3.98 µM [activator, partial curve]
CCCCNC(=O)CCC(=O)Nc1ccc2nc(N3CCOCC3)cc(C)c2c1 3.55 µM [activator, partial curve]
CC1CCN(c2oc(-c3ccccc3Cl)nc2C#N)CC1 3.55 µM [activator, single point]
Cc1ccc(OCc2cc(C(=O)NC(C)Cc3cccnc3)no2)cc1C (configuration not stated) 3.16 µM [activator, single point]
O=C(O)c1cccc(NC2=C(n3nnc4ccccc43)C(=O)c3ccccc3C2=O)c1 1.12 µM [activator, single point]
COc1cccc(N2CCN(c3cnc4ccccc4n3)CC2)c1 3.55 µM [activator, partial curve]
CCCCOc1ccc(-c2ncc(C(=O)OCC)c(N)n2)cc1 3.16 µM [activator, partial curve]
CCC(=O)C1CCCN(C(=O)CCc2nnc(-c3ccc(C(C)=O)s3)o2)C1 (configuration not stated) 4.47 µM [activator, single point]
O=C(CSc1nnc(-c2csc3c2CCCC3)o1)Nc1ccccc1 1.12 µM [activator, full curve]
O=C(COc1ccccc1[N+](=O)[O-])Nc1ccc2c(c1)CCC2 3.16 µM [activator, single point]
O=[N+]([O-])c1nn(-c2ccc3c(c2)OCCO3)n(O)c1=NCc1ccc(F)cc1Cl 3.55 µM [activator, single point]
O=C(Nc1cnn(Cc2ccccc2)c1)c1nc2ncccn2n1 2.82 µM [activator, partial curve]
COc1ccccc1C(=O)NCCC(=O)NC1CCC(C)CC1 (configuration not stated) 2.82 µM [activator, partial curve]
O=c1c2c(nc3cc(-c4ccc(F)cc4)[nH]n13)CCCC2 0.398 µM [activator, full curve, poor fit]
Cc1cccc(OCC(=O)Nc2ccc3c(c2)OCCO3)c1 2.82 µM [activator, partial curve]
Nc1nc(N2CCN(c3ccccn3)CC2)nc2ccccc12 2.82 µM [activator, partial curve]
CC1CCc2c(sc(/N=C/c3ccco3)c2C(N)=O)C1 (configuration not stated) 5.62 µM [activator, single point]

Potency, inactive:
NC(=O)N/N=C/c1ccc(-c2ccc(S(=O)(=O)Nc3ncccn3)cc2)o1
CC1=CC(=O)O[C@@H]1[C@@]1(C)C[C@H]2OC(=O)C[C@H]3[C@@H](C)C(=O)C(O)=C1[C@@]23CO
Cc1cccc(OCC(=O)NCC(=O)N/N=C/c2ccc(N(C)C)cc2)c1
N#C/C(=C\c1ccc(O)c(O)c1)C(=O)NCCCc1ccccc1
COC(CNC(=O)C(=O)NCC1CCCN1S(=O)(=O)c1cccs1)OC (configuration not stated)
COc1cccc(CNC(=O)Cn2ccc3cc(S(=O)(=O)N4CCCCCC4)ccc32)c1OC
Cc1[nH]c2ccccc2c1C(=O)CSc1n[nH]c(N)n1
O=C(N/N=C/C(Br)=C\c1ccccc1)c1ccc2nc[nH]c2c1
COc1ccc(/C=C2/SC(=S)N(CCCC(=O)Nc3cccc(O)c3)C2=O)cc1
O=C(CCSCc1cccc(Cl)c1)NC1CCCC1
COc1ccc(/C=N/NC(=O)CNC(=O)c2ccc3c(c2)OCCO3)c(C(=O)O)c1OC
Cc1nc2ccc3nc(NC(=O)C4COc5ccccc5O4)sc3c2s1 (configuration not stated)
O=S(Cc1ccc(Br)cc1)Cc1nnc(SCc2ccc(Cl)cc2)n1-c1ccccc1 (configuration not stated)
O=S(=O)(c1ccc2c(c1)OCCO2)N1CCN(c2nc3ccccc3s2)CC1
CCC(=O)Nc1cc(OC)c(NC(=O)c2ccccc2)cc1OC
CC1CCCC(NC(=O)CCC(=O)NCc2ccccc2)C1C (configuration not stated)
Clc1cccc(Cl)c1-c1noc(-c2ccno2)n1

Potency, active:
Cc1ccc(C(=O)CSc2nsc(C)c2C#N)cc1 3.55 µM
COc1ccc(-c2c(C)nc3c(-c4ccsc4)cnn3c2N)cc1 0.316 µM
Cc1ccc(NC(=O)c2ccccc2)cc1 2 µM
O=C(/C=C/c1ccco1)N1CCc2ccccc21 1.78 µM
CCC(C)c1ccc(NC(=O)N2CCOCC2)cc1 (configuration not stated) 2.51 µM
Cc1ccccc1Oc1ccc(Oc2ccccc2C)nn1 3.98 µM
Cc1ccccc1Nc1nc(N)c2ccccc2n1 0.708 µM
CCn1nc(C)c(Br)c1-c1nc(-c2cccc(C)c2)no1 2.51 µM
Cc1cccc(NC(=O)CSc2nccn2Cc2ccco2)c1 3.16 µM
Clc1ccc(/C=C/c2ncc[nH]2)c(Cl)c1 2.82 µM
O=[N+]([O-])c1ccc(CSc2nc3ccccc3[nH]2)cc1 3.98 µM
CN1CCN(c2ccc(NC(=O)c3cc4ccccc4o3)cc2)CC1 1.58 µM
